Some of the results follow. The energies were worked out here from pooled read counts, against the library average; single values are noisy.

The experiment deals with T1, Pho4 (S. cerevisiae) (UniProt P07270).
T1 sequence: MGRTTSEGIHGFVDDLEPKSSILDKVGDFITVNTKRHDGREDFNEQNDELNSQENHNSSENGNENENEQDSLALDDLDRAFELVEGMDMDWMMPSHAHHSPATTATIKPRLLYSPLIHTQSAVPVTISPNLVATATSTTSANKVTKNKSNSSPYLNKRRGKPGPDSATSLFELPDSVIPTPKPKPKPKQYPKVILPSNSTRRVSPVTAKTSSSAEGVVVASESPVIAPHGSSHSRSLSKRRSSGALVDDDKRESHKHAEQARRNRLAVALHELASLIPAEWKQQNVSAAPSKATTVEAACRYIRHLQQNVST
Description: relative binding free energy (BET-seq); higher = weaker binding. The settings on record: reference: library average.
In the case of GGAGACACGTGAAGGG, the “relative binding free energy” value was found to be 0.28 kcal/mol.
Then GGAGTCACGTGGGGTG, with 0.04 kcal/mol.
Then TAGGTCACGTGAGAGT, with 0.35 kcal/mol.
ATGAGCACGTGGGTTA: the “relative binding free energy” value is -0.17 kcal/mol.
Turning to GGTGGCACGTGCGGGT, the “relative binding free energy” value was -0.06 kcal/mol.
Take CGTATCACGTGAGTTT: the “relative binding free energy” value worked out at 0.4 kcal/mol.
Then TTGTACACGTGGCTTT, with 0.03 kcal/mol; and ACTGGCACGTGGATGT, with -0.07 kcal/mol; and AGGATCACGTGTAGGT, with 0.24 kcal/mol.
As for TTGCACACGTGGAATG, the “relative binding free energy” value is 0.16 kcal/mol.
Then ATACACACGTGAGGTG, with 0.24 kcal/mol; and TGCCGCACGTGGATGG, with 0.01 kcal/mol.
Take GAGGGCACGTGAAGGG: the “relative binding free energy” value amounted to 0.26 kcal/mol.
On to TTGATCACGTGCTGGA, for which the “relative binding free energy” value amounted to 0.24 kcal/mol.
As for TAATGCACGTGGGCCG, the “relative binding free energy” value is -0.19 kcal/mol.
As to TTTGCCACGTGGGCTG, the “relative binding free energy” value is -0.31 kcal/mol.
As for TTGGTCACGTGTGTGG, the “relative binding free energy” value is 0.16 kcal/mol.
Then GCTTGCACGTGGTATA, with -0.09 kcal/mol; and ATTGGCACGTGCTGGA, with -0.13 kcal/mol; and AGTCTCACGTGGTATA, with 0.13 kcal/mol.
Then CTTGACACGTGTTAGG, with 0.12 kcal/mol.
Then TTGCACACGTGGGTTA, with -0.15 kcal/mol.
For the sequence TGGCTCACGTGGATTG, the “relative binding free energy” value turned out to be 0.25 kcal/mol.
Then AAGGACACGTGAAGTG, with 0.33 kcal/mol.
Then TGGTGCACGTGCGCTA, with -0.15 kcal/mol.
Take GAAGTCACGTGGTTCG: the “relative binding free energy” value was 0.16 kcal/mol.
For the sequence TAGCTCACGTGGTATA, the “relative binding free energy” value was 0.19 kcal/mol.
In the case of GTGAGCACGTGTTTGA, the “relative binding free energy” value is -0.09 kcal/mol.
As for TAGTACACGTGGGGCA, the “relative binding free energy” value was -0.04 kcal/mol.
Then CTTATCACGTGATGGG, with 0.2 kcal/mol.
For GTAAGCACGTGGCTTG, the “relative binding free energy” value was -0.09 kcal/mol.
Then GGATACACGTGAGATG, with 0.29 kcal/mol; and ATAATCACGTGGTGAG, with 0.12 kcal/mol.
Turning to AGGTTCACGTGGGGCC, the “relative binding free energy” value was 0.15 kcal/mol.
Then ATGGTCACGTGCTTGA, with 0.14 kcal/mol.
Then CGACGCACGTGGGGAG, with -0.17 kcal/mol; and TTTGGCACGTGAAAAG, with 0.08 kcal/mol.
For the sequence AATGGCACGTGGCTGA, the “relative binding free energy” value was -0.23 kcal/mol.
Then ATCTTCACGTGTGGAT, with 0.15 kcal/mol.
Take CTTGGCACGTGCTTTG: the “relative binding free energy” value is -0.17 kcal/mol.
As for TTTTGCACGTGTGTTG, the “relative binding free energy” value is 0.1 kcal/mol.
As for GTTCACACGTGTGTGT, the “relative binding free energy” value was 0.26 kcal/mol.
In the case of ACGGGCACGTGCATGG, the “relative binding free energy” value was -0.17 kcal/mol.
For GGTCGCACGTGATATG, the “relative binding free energy” value amounted to 0.13 kcal/mol.
Take AATGACACGTGGGTCT: the “relative binding free energy” value is -0.14 kcal/mol.
Then GTAGTCACGTGGGTAC, with -0.04 kcal/mol; and GTTTTCACGTGTGTAA, with 0.45 kcal/mol.
Take GCGGCCACGTGTGTTT: the “relative binding free energy” value is 0.14 kcal/mol.
Consider CGTGGCACGTGTGTAT, for which the “relative binding free energy” value was -0.08 kcal/mol.
Then TCATACACGTGTGCGT, with 0.06 kcal/mol.
Then GGAAGCACGTGGTATT, with -0.16 kcal/mol; and AAGTGCACGTGTATGG, with -0.04 kcal/mol.
GTGGTCACGTGTTAAA: the “relative binding free energy” value stood at 0.28 kcal/mol.
With AGGTGCACGTGATAGA, the “relative binding free energy” value is -0.01 kcal/mol.
Then CGTGACACGTGTTTTA, with -0.06 kcal/mol; and ATAATCACGTGGCTTG, with 0.04 kcal/mol.
As to GTGGTCACGTGGCGGT, the “relative binding free energy” value is 0.25 kcal/mol.
For TCTTTCACGTGTTGGT, the “relative binding free energy” value amounted to 0.3 kcal/mol.
Then GTTTGCACGTGAAGCA, with 0.22 kcal/mol.
Then TAATTCACGTGATCGG, with 0.26 kcal/mol.
Then AGATTCACGTGGACGT, with 0.36 kcal/mol.
As for GAGTTCACGTGAGTTT, the “relative binding free energy” value amounted to 0.36 kcal/mol.
For the sequence ATGTCCACGTGAGTGG, the “relative binding free energy” value worked out at 0.19 kcal/mol.
Consider TGTTCCACGTGGGAGA, for which the “relative binding free energy” value was -0.02 kcal/mol.
Then TCGTGCACGTGGTGAT, with -0.02 kcal/mol; and AGGTCCACGTGTGGTA, with 0.11 kcal/mol.
Then GTTTGCACGTGGTCGT, with -0.05 kcal/mol; and GTTACCACGTGGGGGA, with -0.15 kcal/mol.
Then GGTCCCACGTGGTGTT, with -0.2 kcal/mol.
As for TAGGCCACGTGGTAAG, the “relative binding free energy” value was -0.13 kcal/mol.
On to TATGGCACGTGGGGTA, for which the “relative binding free energy” value is -0.25 kcal/mol.
For GTCTGCACGTGGGGTT, the “relative binding free energy” value is -0.16 kcal/mol.
GGTTACACGTGTTATA: the “relative binding free energy” value is 0.09 kcal/mol.
Turning to AGGGGCACGTGGCGGG, the “relative binding free energy” value is -0.1 kcal/mol.
Then AAGTCCACGTGTAGGT, with -0.08 kcal/mol.
Then GTATGCACGTGTTGGA, with 0.09 kcal/mol.
With GTAGGCACGTGTGTTA, the “relative binding free energy” value was -0.04 kcal/mol.
AGTGCCACGTGAAGAG: the “relative binding free energy” value was 0.18 kcal/mol.
On to TCAGGCACGTGAGTTG, for which the “relative binding free energy” value came to 0.12 kcal/mol.
Turning to AATAACACGTGTGGTG, the “relative binding free energy” value was found to be 0.01 kcal/mol.
In the case of CGATTCACGTGGGGAT, the “relative binding free energy” value stood at 0.19 kcal/mol.
Then TCCGTCACGTGGATTG, with 0.26 kcal/mol; and AGTGGCACGTGATAAT, with 0.07 kcal/mol.
Regarding ATCATCACGTGTAGTT, the “relative binding free energy” value was 0.08 kcal/mol.
Regarding CGGATCACGTGAAGTG, the “relative binding free energy” value worked out at 0.26 kcal/mol.
Then TGCGGCACGTGTCGTA, with -0.16 kcal/mol; and TATTTCACGTGTTTAC, with 0.09 kcal/mol.
Then AAGTGCACGTGTGGGC, with -0.02 kcal/mol; and TATACCACGTGGGTGT, with -0.28 kcal/mol.
Turning to GCGCTCACGTGGGCGG, the “relative binding free energy” value was found to be 0.14 kcal/mol.
Then TTTTTCACGTGGGCAG, with 0.16 kcal/mol; and GAGAGCACGTGGAGGC, with 0.01 kcal/mol.
Turning to GCGTTCACGTGGGTGG, the “relative binding free energy” value turned out to be 0.17 kcal/mol.
Then ATTATCACGTGGATAA, with 0.15 kcal/mol; and CGTGGCACGTGTTAAA, with 0.07 kcal/mol; and TTATGCACGTGGTGTA, with -0.21 kcal/mol.
For AGTTTCACGTGGAAGG, the “relative binding free energy” value came out at 0.43 kcal/mol.
For AGTGCCACGTGGGTAG, the “relative binding free energy” value is -0.27 kcal/mol.
Then AAAAGCACGTGTAGTT, with -0.04 kcal/mol; and AGAAGCACGTGACGTT, with 0.24 kcal/mol; and TTTATCACGTGGAAAG, with 0.12 kcal/mol.
Regarding TTATTCACGTGTGCTT, the “relative binding free energy” value came out at 0.25 kcal/mol.
With CAGTTCACGTGTGCAG, the “relative binding free energy” value stood at 0.32 kcal/mol.
Then GGGGTCACGTGCATGG, with 0.12 kcal/mol.
As for CATGACACGTGGGGAT, the “relative binding free energy” value is -0.14 kcal/mol.
Then ACTGGCACGTGGTGTG, with -0.24 kcal/mol; and GTATGCACGTGTGGGG, with 0.08 kcal/mol; and CTTGTCACGTGAATTG, with 0.34 kcal/mol.
As for ATTATCACGTGAGGAG, the “relative binding free energy” value turned out to be 0.31 kcal/mol.
Regarding GATTTCACGTGATGTA, the “relative binding free energy” value came to 0.32 kcal/mol.
On to GGGGCCACGTGACGGT, for which the “relative binding free energy” value is -0.01 kcal/mol.
Then CGTAGCACGTGTGAGG, with 0 kcal/mol; and GTATTCACGTGCATTG, with 0.36 kcal/mol; and AATGACACGTGTGAGA, with 0.12 kcal/mol.
Consider AACTGCACGTGGAGTT, for which the “relative binding free energy” value was found to be 0.11 kcal/mol.

These data come from the BET-seq Pho4 binding data (Le et al. 2018).
